Our source for the binding values is article PMC5745004.

Protein sequences, listed by entry. Tags and fused reporters are not part of them. Lines headed by an entry give the natural chain unless they say otherwise; changes in a name come on top. Chains listed by the source or under a name are the forms on record and can include a tag or linker.
UniProt P23321: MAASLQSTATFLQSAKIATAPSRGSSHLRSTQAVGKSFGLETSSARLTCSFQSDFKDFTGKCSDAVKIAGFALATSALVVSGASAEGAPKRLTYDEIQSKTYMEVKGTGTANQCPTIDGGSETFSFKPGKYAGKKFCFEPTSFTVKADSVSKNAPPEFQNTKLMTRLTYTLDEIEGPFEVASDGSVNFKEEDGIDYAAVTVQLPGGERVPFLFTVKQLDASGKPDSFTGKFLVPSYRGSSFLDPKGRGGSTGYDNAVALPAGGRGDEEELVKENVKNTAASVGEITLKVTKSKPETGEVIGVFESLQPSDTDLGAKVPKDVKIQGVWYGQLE
PsbO1* (PsbO1 clone found in the pJG4-5 prey library, lacking the first 22 amino acids, T200A) (P23321, form named): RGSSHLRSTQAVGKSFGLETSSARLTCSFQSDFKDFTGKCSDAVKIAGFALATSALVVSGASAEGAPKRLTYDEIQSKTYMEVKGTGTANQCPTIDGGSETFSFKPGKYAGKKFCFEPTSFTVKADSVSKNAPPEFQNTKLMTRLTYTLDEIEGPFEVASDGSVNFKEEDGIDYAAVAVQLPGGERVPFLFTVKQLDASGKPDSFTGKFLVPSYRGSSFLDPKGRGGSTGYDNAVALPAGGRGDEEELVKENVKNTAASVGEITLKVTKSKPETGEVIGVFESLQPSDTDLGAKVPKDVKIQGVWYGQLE
mature form PsbO1^T200A, HA-tagged prey (P23321, form named): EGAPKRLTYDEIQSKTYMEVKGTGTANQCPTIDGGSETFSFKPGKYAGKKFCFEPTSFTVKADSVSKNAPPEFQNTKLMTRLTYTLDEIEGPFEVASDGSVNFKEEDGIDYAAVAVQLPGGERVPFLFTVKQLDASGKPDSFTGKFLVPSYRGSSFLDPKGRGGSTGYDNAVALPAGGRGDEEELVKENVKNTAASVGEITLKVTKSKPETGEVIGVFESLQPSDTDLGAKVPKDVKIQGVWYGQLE

The target of test [1] is T1, HSP90C middle and C-terminal domains (HSP90C-MC), bait in pEG202 (Arabidopsis) (UniProt Q9SIF2).
T1 sequence: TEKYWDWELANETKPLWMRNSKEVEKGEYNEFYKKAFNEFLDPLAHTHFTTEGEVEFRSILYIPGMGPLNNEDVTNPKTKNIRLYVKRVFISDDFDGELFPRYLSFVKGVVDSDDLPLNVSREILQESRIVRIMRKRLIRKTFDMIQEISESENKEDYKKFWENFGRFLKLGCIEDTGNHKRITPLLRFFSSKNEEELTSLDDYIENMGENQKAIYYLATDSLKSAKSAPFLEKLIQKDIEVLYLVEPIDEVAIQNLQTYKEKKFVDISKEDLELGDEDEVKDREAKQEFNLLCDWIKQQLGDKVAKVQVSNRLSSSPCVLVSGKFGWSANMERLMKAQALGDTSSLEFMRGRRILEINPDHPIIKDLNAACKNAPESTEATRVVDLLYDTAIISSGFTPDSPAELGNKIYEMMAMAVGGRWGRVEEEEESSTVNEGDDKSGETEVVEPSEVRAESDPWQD
The test is described as follows: two-hybrid; library screen: HSP90C-MC bait in pEG202, Arabidopsis inflorescence cDNA prey library in pJG4-5, S. cerevisiae EGY48, LEU2 and lacZ markers, three rounds; hits sequenced and retransformed (dilution assay on SG-UHWL, 30°C, 4 days).

Test [2] has as its target T1, HSP90C middle and C-terminal domains (HSP90C-MC), bait in pEG202 (Arabidopsis). In words: two-hybrid; directed tests in S. cerevisiae EGY48 of re-constructed PsbO1 forms (prey) with HSP90C-MC or HSP90C-N.
In test [3] the target is T2, HSP90C N-terminal domain (HSP90C-N) (Arabidopsis) (UniProt Q9SIF2).
T2 sequence: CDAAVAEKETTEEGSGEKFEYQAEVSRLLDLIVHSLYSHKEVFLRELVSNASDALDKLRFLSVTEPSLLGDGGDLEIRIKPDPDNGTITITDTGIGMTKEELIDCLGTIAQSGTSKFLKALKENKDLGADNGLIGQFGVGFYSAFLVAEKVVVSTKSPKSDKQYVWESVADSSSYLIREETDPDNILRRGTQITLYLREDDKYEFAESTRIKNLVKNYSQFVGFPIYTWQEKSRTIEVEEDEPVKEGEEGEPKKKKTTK
Described as above.

For test [4], the target named is full length (pre-protein) PsbO1^T200A, prey (Arabidopsis) (UniProt P23321). The test is described as follows: co-IP; HA-tagged PsbO1^T200A precipitated with anti-HA affinity resin from EGY48 yeast cell lysate; HSP90C-MC detected with anti-LexA or anti-HSP90C.
For test [5], the target named is mature form PsbO1^T200A, HA-tagged prey (Arabidopsis) (UniProt P23321). Described as above.

These are yes or no findings as the source states them, for the method shown. For some of these results: In cells and extracts the contact can be indirect. Some results given as binding are weak or reduced against the parent protein; the word gives no strength.

Take “PsbO1* (PsbO1 clone found in the pJG4-5 prey library, lacking the first 22 amino acids, T200A) (from UniProt P23321 23-332) (domain or fragment)”: the binding result in test [1] is listed as “binds”.

Take “full length (pre-protein) PsbO1^T200A, prey (from UniProt P23321 1-332)”: in test [2], the binding entry is listed as “binds”.

Turning to “mature form PsbO1^T200A, HA-tagged prey (from UniProt P23321 86-332) (domain or fragment)”, in test [2], the binding result was “binds”.

Regarding “native PsbO1 mature form, prey (from UniProt P23321 86-332) (domain or fragment)”, the binding result in test [3] was “no binding”; in test [2] it was “binds”.

B1: HSP90C middle and C-terminal domains (HSP90C-MC), bait in pEG202 (domain or fragment, UniProt Q9SIF2 320-780)
chain: T1 sequence
For B1, the binding result in test [4] and in test [5] was “binds” throughout.
